A lower IC50 marks a more sensitive line; a limit (>, <) means that the fit lies beyond the doses tested. AUC is the area under the same curve over the 256-fold range up to the top dose, as a fraction: 1 means no effect, lower means more sensitive. For some of these results: The top dose, if marked as inferred, comes from the curve model; the source does not state it. For some of these results: Where an entry number is given, a second screen of the drug exists; the two often differ.
How the values were obtained:
Assay in all cases: Viability of human cancer cell lines after 72 h of drug (GDSC screen)
Y-39983 = compound: C[C@@H](N)c1ccc(C(=O)Nc2ccnc3[nH]ccc23)cc1 [Y-39983]; details: top dose 20 µM; top dose inferred
Protocol: (§1)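 Human cancer cell lines in 384-well plates, medium with 10% serum, drug for 72 h over a 256-fold dose range (nine 2-fold or five 4-fold steps up to the top dose). Adherent lines were fixed and stained with the nucleic acid dye Syto60, suspension lines read with resazurin; signal relative to control wells, capped at 0 and 100%. One two-parameter sigmoid per drug and line, fitted in a mixed model over all curves with the slope shared within a line.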

PLX4720 = compound: CCCS(=O)(=O)Nc1ccc(F)c(C(=O)c2c[nH]c3ncc(Cl)cc23)c1F [PLX4720]; details: top dose 10 µM
Protocol: as §1

TPCA-1 = compound: NC(=O)Nc1sc(-c2ccc(F)cc2)cc1C(N)=O [TPCA-1]; details: top dose 20 µM
Protocol: as §1

AZD-0530 = compound: CN1CCN(CCOc2cc(OC3CCOCC3)c3c(Nc4c(Cl)ccc5c4OCO5)ncnc3c2)CC1 [AZD-0530]; details: top dose 2 µM
Protocol: as §1

Epothilone B = compound: C/C(=C\c1csc(C)n1)[C@@H]1C[C@@H]2O[C@]2(C)CCC[C@H](C)[C@H](O)[C@@H](C)C(=O)C(C)(C)[C@@H](O)CC(=O)O1 [Epothilone B]; details: top dose 0.032 µM; top dose inferred
Protocol: as §1

Pyrimethamine = compound: CCc1nc(N)nc(N)c1-c1ccc(Cl)cc1 [Pyrimethamine]; details: top dose 20 µM; top dose inferred
Protocol: as §1

PHA-793887 = compound: CC(C)CC(=O)Nc1n[nH]c2c1CN(C(=O)C1CCN(C)CC1)C2(C)C [PHA-793887]; details: top dose 10.24 µM
Protocol: as §1

[1] = screen: GDSC drug entry 1371, top dose inferred

Cell Line | AUC (Y-39983) | IC50 (Y-39983) [nM] | AUC (PLX4720; screen: GDSC drug entry 1036) | IC50 (PLX4720; screen: GDSC drug entry 1036) [nM] | AUC (PLX4720; [1]) | IC50 (PLX4720; [1]) [nM] | AUC (TPCA-1) | IC50 (TPCA-1) [nM] | AUC (AZD-0530) | IC50 (AZD-0530) [nM] | AUC (Epothilone B) | IC50 (Epothilone B) [nM] | AUC (Pyrimethamine) | IC50 (Pyrimethamine) [nM] | AUC (PHA-793887) | IC50 (PHA-793887) [nM]
NCI-SNU-16 (stomach, suspension) | 0.991 | > 20000 | 0.97 | > 10000 | 0.968 | > 10000 | 0.936 | > 20000 | 0.991 | > 2000 | 0.914 | > 32 | 0.959 | > 20000 | 0.93 | > 10200
NKM-1 (acute myeloid leukaemia, suspension) | 0.845 | 15100 | 0.984 | > 10000 | 0.958 | > 10000 | 0.597 | 2330 | 0.976 | > 2000 | 0.502 | 2.02 | 0.914 | > 20000 | 0.22 | 94.7
NMC-G1 (glioma, adherent) | 0.977 | > 20000 | 0.877 | > 10000 | 0.837 | 8980 | 0.833 | 17200 | 0.896 | > 2000 | 0.464 | 1.56 | 0.959 | > 20000 | 0.73 | 3400
NOMO-1 (acute myeloid leukaemia, suspension) | 0.697 | 4840 | 0.982 | > 10000 | 0.979 | > 10000 | 0.486 | 1140 | 0.972 | > 2000 | 0.686 | 7.17 | 0.876 | > 20000 | 0.58 | 1090
NOS-1 (osteosarcoma, adherent) | 0.949 | > 20000 | 0.872 | > 10000 |  |  | 0.516 | 1400 | 0.737 | 704 | 0.557 | 2.97 | 0.703 | 5400 | 0.576 | 1090
NTERA-2 cl.D1 (testis, adherent) | 0.942 | > 20000 |  |  | 0.592 | 1120 | 0.861 | 16700 | 0.985 | > 2000 | 0.373 | 0.895 | 0.957 | > 20000 | 0.897 | > 10200
NU-DUL-1 (B-cell lymphoma, suspension) | 0.774 | 6350 | 0.939 | > 10000 | 0.99 | > 10000 | 0.382 | 636 | 0.94 | > 2000 | 0.688 | 5.94 | 0.985 | > 20000 | 0.214 | 116
OCI-AML2 (acute myeloid leukaemia, suspension) | 0.601 | 2200 | 0.981 | > 10000 | 0.975 | > 10000 | 0.513 | 1340 | 0.995 | > 2000 | 0.578 | 3.1 | 0.812 | 7520 | 0.739 | 2470
OCI-AML3 (acute myeloid leukaemia, suspension) | 0.969 | > 20000 | 0.984 | > 10000 | 0.99 | > 10000 | 0.684 | 3760 | 0.987 | > 2000 | 0.605 | 3.71 | 0.983 | > 20000 | 0.507 | 668
OCI-AML5 (acute myeloid leukaemia, suspension) | 0.879 | 17500 | 0.989 | > 10000 | 0.988 | > 10000 | 0.464 | 1010 | 0.988 | > 2000 | 0.632 | 4.45 | 0.989 | > 20000 | 0.523 | 736
OCI-LY-19 (B-cell lymphoma, suspension) | 0.89 | 20000 | 0.95 | > 10000 | 0.938 | > 10000 | 0.318 | 407 | 0.984 | > 2000 | 0.415 | 1.2 | 0.965 | > 20000 | 0.455 | 486
OCI-M1 (acute myeloid leukaemia, suspension) | 0.976 | > 20000 | 0.993 | > 10000 | 0.993 | > 10000 | 0.18 | 192 | 0.995 | > 2000 | 0.74 | 7.91 | 0.971 | > 20000 | 0.464 | 524
OMC-1 (cervix, adherent) | 0.985 | > 20000 | 0.984 | > 10000 | 0.986 | > 10000 | 0.918 | > 20000 | 0.977 | > 2000 | 0.825 | 20.5 | 0.972 | > 20000 | 0.931 | > 10200
OPM-2 (myeloma, suspension) | 0.895 | 16300 | 0.979 | > 10000 | 0.993 | > 10000 | 0.699 | 4010 | 0.993 | > 2000 | 0.853 | 18.2 | 0.908 | 18800 | 0.725 | 2410
OS-RC-2 (kidney, adherent) | 0.925 | > 20000 | 0.96 | > 10000 | 0.952 | > 10000 | 0.877 | > 20000 | 0.821 | 1930 | 0.457 | 1.45 | 0.566 | 2060 | 0.922 | > 10200
P31-FUJ (acute myeloid leukaemia, suspension) | 0.988 | > 20000 | 0.993 | > 10000 | 0.996 | > 10000 | 0.971 | > 20000 | 0.996 | > 2000 | 0.996 | > 32 | 0.995 | > 20000 | 0.86 | 5500
P32-ISH (Burkitt lymphoma, suspension) | 0.704 | 3960 | 0.963 | > 10000 | 0.978 | > 10000 | 0.621 | 2460 | 0.987 | > 2000 | 0.428 | 1.33 | 0.992 | > 20000 | 0.572 | 960

Source: the supplement of paper PMC4967469
